In all, about 33,000 sequences were measured (“E-score (-0.5 to 0.5)”: median about -0.013, highest 2% from about 0.3 on). The list shows a part of the results.

This experiment concerns the target T1, Msn1 (UniProt P22148).
T1 sequence: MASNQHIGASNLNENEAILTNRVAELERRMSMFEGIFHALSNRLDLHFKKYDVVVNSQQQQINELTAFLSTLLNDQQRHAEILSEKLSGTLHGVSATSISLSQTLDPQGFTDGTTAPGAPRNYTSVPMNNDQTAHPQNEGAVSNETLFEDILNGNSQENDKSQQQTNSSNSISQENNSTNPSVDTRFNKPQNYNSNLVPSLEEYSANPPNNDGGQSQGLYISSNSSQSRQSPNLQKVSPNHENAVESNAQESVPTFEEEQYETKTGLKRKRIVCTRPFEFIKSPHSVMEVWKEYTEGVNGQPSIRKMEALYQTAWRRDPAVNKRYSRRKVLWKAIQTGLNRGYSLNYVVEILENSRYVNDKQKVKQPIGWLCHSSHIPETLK
Description: PBM E-score (8-mer binding enrichment) (E-score (-0.5 to 0.5)); higher = stronger / more preferred TF binding; most listed sequences are background and not binding sites. The note with it: protein concentration: 200 nM; construct: GST-full length. The procedure: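 Universal 'all 10-mer' protein binding microarrays (Agilent AMADID 015681) probed with GST-tagged S. cerevisiae TFs (full-length or DBD) made by in vitro transcription/translation (PURExpress), about 100-200 nM. Bound TF was detected with fluorescent anti-GST. Each ungapped 8-mer (which stands for itself and its reverse complement) is scored by the PBM enrichment score (E-score), a modified Wilcoxon-Mann-Whitney statistic from -0.5 to +0.5, computed with the Universal PBM Analysis Suite. Scale: above 0.35 generally sequence-specific binding.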
ATCTTGGG: the “PBM E-score” value was 0.0615.

Take AGTCTAAC: the “PBM E-score” value is -0.192.

In the case of AAACGCCG, the “PBM E-score” value turned out to be 0.135.

For the sequence GAGAGGGC, the “PBM E-score” value was -0.445.

ACCTCTGA: the “PBM E-score” value is -0.116.

In the case of GCAACACA, the “PBM E-score” value was -0.0152.

For the sequence AACCATGT, the “PBM E-score” value came out at 0.0974.

ACCGAATG: the “PBM E-score” value was -0.0786.

Take CATTTAAC: the “PBM E-score” value came to 0.188.

On to CCCAAGGA, for which the “PBM E-score” value is -0.0833.

CTCGCCAC: the “PBM E-score” value was -0.205.

Consider ATTCACCG, for which the “PBM E-score” value was determined as 0.0949.

Regarding GTATCGAC, the “PBM E-score” value worked out at 0.0727.

Consider CCGTCAAG, for which the “PBM E-score” value is -0.0984.

Turning to CAACGGGG, the “PBM E-score” value was -0.0441.

ATCACCAT: the “PBM E-score” value turned out to be 0.0597.

As for AACAATAA, the “PBM E-score” value was found to be 0.21.

In the case of ACGGCTTC, the “PBM E-score” value is -0.0486.

On to GAGAATGA, for which the “PBM E-score” value came out at 0.153.

Turning to GTTGATAA, the “PBM E-score” value is 0.116.

With GGCCTCCA, the “PBM E-score” value is -0.116.

As to CGACCACG, the “PBM E-score” value was -0.0124.

In the case of CTGCAGCC, the “PBM E-score” value is -0.0859.

In the case of ATCGCCGC, the “PBM E-score” value is -0.111.

In the case of GTCCGCGA, the “PBM E-score” value is 0.183.

Regarding AAGGTGCC, the “PBM E-score” value was -0.0665.

As to CTGACAAC, the “PBM E-score” value was 0.108.

As to AGTATGGC, the “PBM E-score” value is -0.0129.

Regarding AGGTTTCG, the “PBM E-score” value is -0.0543.

In the case of ATCAGGAC, the “PBM E-score” value was 0.307.

AAGCTGAA: the “PBM E-score” value was found to be 0.0186.

As to GGAGCACC, the “PBM E-score” value was -0.19.

In the case of ACTTGCCG, the “PBM E-score” value is -0.08.

For the sequence ATCGAGTG, the “PBM E-score” value was 0.103.

GTGTGACA: the “PBM E-score” value is 0.17.

Consider CGGATCGC, for which the “PBM E-score” value is -0.0183.

As to GGACGGCA, the “PBM E-score” value is -0.11.

ATTTCTCC: the “PBM E-score” value is -0.0307.

Turning to AACTTTCT, the “PBM E-score” value was 0.13.

ATAGTAGC: the “PBM E-score” value turned out to be 0.0535.

As for CGTGGCCA, the “PBM E-score” value was -0.173.

GGAAGGCA: the “PBM E-score” value is -0.0964.

Turning to CCATTTTA, the “PBM E-score” value was determined as 0.259.

As for AATGCGCC, the “PBM E-score” value stood at 0.00012.

In the case of AAACAGGA, the “PBM E-score” value was found to be 0.157.

For the sequence GCCAACGC, the “PBM E-score” value was found to be 0.00975.

For the sequence GATCAATC, the “PBM E-score” value was -0.132.

For CAGCGCTG, the “PBM E-score” value was found to be 0.0343.

As to CCGTAGGA, the “PBM E-score” value was -0.122.

In the case of CTACTAGA, the “PBM E-score” value is -0.0895.

In the case of CCCTTTAG, the “PBM E-score” value is -0.0917.

Regarding CTAACCAG, the “PBM E-score” value was -0.108.

On to CAAATATG, for which the “PBM E-score” value is 0.0934.

As to AAGACGAA, the “PBM E-score” value was 0.148.

For TAATGCAA, the “PBM E-score” value was -0.0272.

As to ATCTCTCC, the “PBM E-score” value was -0.195.

For CCGACAGC, the “PBM E-score” value is -0.104.

Regarding ATACGAAG, the “PBM E-score” value is -0.00167.

Take AAATAAAC: the “PBM E-score” value stood at 0.169.

Consider GACCGCCC, for which the “PBM E-score” value was -0.316.

CTACCGTA: the “PBM E-score” value was -0.056.

Turning to ACCGTTTC, the “PBM E-score” value was -0.0397.

Regarding AAGTCTGT, the “PBM E-score” value is 0.232.

For CGGGTTGC, the “PBM E-score” value is -0.216.

On to AGGTGTAT, for which the “PBM E-score” value was -0.0133.

Take ATGATATA: the “PBM E-score” value is 0.0391.

With CTACTCCC, the “PBM E-score” value was -0.042.

As to CGTAAACG, the “PBM E-score” value is -0.219.

As to CTTGGGAC, the “PBM E-score” value was found to be 0.264.

With ATAGCACA, the “PBM E-score” value is -0.0389.

Regarding ACGGTTAC, the “PBM E-score” value is -0.131.

As for CCTTAACA, the “PBM E-score” value was -0.016.

For the sequence AGGGGATA, the “PBM E-score” value was -0.137.

In the case of CCGCAATC, the “PBM E-score” value was -0.0118.

With AGAGTCTC, the “PBM E-score” value is -0.0717.

Consider ATTTAGTG, for which the “PBM E-score” value was found to be 0.213.

Consider TAATAGCA, for which the “PBM E-score” value was -0.169.

Regarding CGATGAAG, the “PBM E-score” value worked out at 0.0277.

As for ATCTTCCG, the “PBM E-score” value stood at 0.188.

Regarding ACCGATCT, the “PBM E-score” value was -0.0846.

AAGCATCG: the “PBM E-score” value is -0.0127.

Regarding AGACGAAT, the “PBM E-score” value was 0.205.

Take ATTTCTTA: the “PBM E-score” value worked out at 0.145.

GCCCCCGA: the “PBM E-score” value was -0.312.

On to ACTGTTGG, for which the “PBM E-score” value was -0.118.

For ATACAAAT, the “PBM E-score” value turned out to be 0.335.

(Values after the supplement of paper PMC3334620.)
